Molecular target: PfAtg8-PfAtg3 interaction (Plasmodium falciparum, UniProt Q8IJK2)
Assay type: binding, P. falciparum
Details: 5 μM

PfAtg8-PfAtg3 interaction, sequence (Q8IJK2 whole entry C32I/C119S/C122S): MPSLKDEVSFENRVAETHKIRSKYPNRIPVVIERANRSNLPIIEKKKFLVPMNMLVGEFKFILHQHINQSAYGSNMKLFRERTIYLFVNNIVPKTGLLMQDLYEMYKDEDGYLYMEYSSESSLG

Question: Which “inhibition of the PfAtg8-PfAtg3 interaction in primary SPR screen” value (shortened to “inhibition”) does the source give for `Brc1ccc(Nc2nc3ccccc3nc2Nc2ccc(Br)cc2)cc1` [Compound 6, 2-N,3-N-bis(4-bromophenyl)quinoxaline-2,3-diamine] here?
Answer: at least twenty five percent inhibition

Question: `CSc1ccccc1C(=O)Nc1nc(-c2ccccn2)cs1` [Compound 2, 2-methylsulfanyl-N-(4-pyridin-2-yl-1,3-thiazol-2-yl)benzamide] was tested. Which “inhibition” value did it give?
Answer: at least twenty five percent inhibition

Question: `Cc1ccc(-c2cc3c(SCC(=O)Nc4cc(C(F)(F)F)ccc4Cl)nccn3n2)cc1` [Compound 4, N-[2-chloro-5-(trifluoromethyl)phenyl]-2-[2-(4-methylphenyl)pyrazolo[1,5-a]pyrazin-4-yl]sulfanylacetamide] was tested. Which “inhibition” value did it give?
Answer: at least twenty five percent inhibition

Question: `CN(C)c1ccc(N2C(N)=NC(N)=NC2(C)C)cc1` [Compound 5, 1-[4-(dimethylamino)phenyl]-6,6-dimethyl-1,3,5-triazine-2,4-diamine] was tested. Which “inhibition” value did it give?
Answer: at least twenty five percent inhibition

From patent US20170044150A1, “IDENTIFICATION OF COMPOUNDS WHICH INHIBIT ATG8-ATG3 PROTEIN-PROTEIN INTERACTION AND THEIR USE AS ANTIPARASITICAL AGENTS” (THE JOHNS HOPKINS UNIVERSITY, priority 2014, published 2017)
